Source: PubChem BioAssay AID266 (DTP/NCI, 2004)
Records with an inconclusive call do not appear. Some entries of the source have several records that differ or are many. They are shown here; other results are not. There may be further records. The records of an entry repeat one measurement in other runs, samples, wells, individuals or studies.

Test system: Nude mice, LX-1 lung xenograft intrarenal, tumor weight T/C
Test: NCI In Vivo Anticancer Drug Screen. Data for tumor model Human Lung LX-1 Xenograft (intrarenal inoculation) in NU/NU BALB/C (nude) mice
Details: endpoint: mean tumor weight change, higher = larger tumour
Protocol: The antitumor activity of compounds was measured in mice bearing transplantable tumors. Survival or tumor size were measured and the results are expressed as the measurement made in the treated group (T) divided by the measurement made in the vehicle treated control group (C). The tumor model used in this assay is Human Lung LX-1 Xenograft (intrarenal inoculation) in NU/NU BALB/C (nude) mice

[1] = dose: 100.0 mg/kg/injection, schedule: Q04DX003 (ip), vehicle: saline

[N-]=[N+]=CC(=O)CCC(N)C(=O)O (configuration not stated)
T/C (dose: 0.4 mg/kg/injection, schedule: Q02DX005 (sc), vehicle: saline): 61 % of control and 207 % of control | T/C (dose: 0.8 mg/kg/injection, schedule: Q02DX005 (sc), vehicle: saline): 46 % of control and 182 % of control | T/C (dose: 1.6 mg/kg/injection, schedule: Q02DX005 (sc), vehicle: saline): 56 % of control and 381 % of control

COC(=O)c1ccc(N=NN(C)COC(C)=O)cc1
T/C (dose: 60.0 mg/kg/injection, schedule: Q04DX003 (ip), vehicle: Klucel (hydroxypropylcellulose) (HPC)): 63 % of control and 104 % of control | T/C (dose: 120.0 mg/kg/injection, schedule: Q04DX003 (ip), vehicle: Klucel (hydroxypropylcellulose) (HPC)): 37 % of control and 111 % of control | T/C (dose: 240.0 mg/kg/injection, schedule: Q04DX003 (ip), vehicle: Klucel (hydroxypropylcellulose) (HPC)): 16 % of control and 87 % of control | T/C (dose: 480.0 mg/kg/injection, schedule: Q04DX003 (ip), vehicle: Klucel (hydroxypropylcellulose) (HPC)): 15 % of control and 86 % of control

CC1(CO)C(O)CCC2(C)C1CCC1CC3CC12CCC3(O)CO (configuration not stated)
T/C (dose: 100.0 mg/kg/injection, schedule: Q01DX010 (sc), vehicle: saline with Tween-80): 45 % of control and 82 % of control | T/C (dose: 200.0 mg/kg/injection, schedule: Q01DX010 (sc), vehicle: saline with Tween-80): 11 % of control and 55 % of control

Cn1cc(C2NC(=O)c3ccccc3N2)c2ccccc21 (configuration not stated)
T/C (dose: 600.0 mg/kg/injection, schedule: Q04DX003 (sc), vehicle: Klucel (hydroxypropylcellulose) (HPC)): 91 % of control and 119 % of control

CC(O)CCC(=O)c1ccoc1 (configuration not stated)
T/C (dose: 7.5 mg/kg/injection, schedule: Q01DX010 (ip), vehicle: saline): 68 % of control and 102 % of control

Nc1ncn(C2OC(CO)C(O)C2O)c(=O)n1 (configuration not stated)
T/C (dose: 800.0 mg/kg/injection, schedule: Q04DX003 (sc), vehicle: saline): 1 % of control and 28 % of control

O=NN(CCCl)C(=O)NC1CCCCC1
T/C (dose: 8.0 mg/kg/injection, schedule: Q01DX010 (sc), vehicle: saline with Tween-80): 31 % of control and 112 % of control | T/C (dose: 16.0 mg/kg/injection, schedule: Q01DX010 (sc), vehicle: saline with Tween-80): -86 % of control and 32 % of control | T/C (dose: 32.0 mg/kg/injection, schedule: Q01DX010 (sc), vehicle: saline with Tween-80): -93 % of control and -55 % of control

CN(Cc1cnc2nc(N)nc(N)c2n1)c1ccc(C(=O)N[C@@H](CCC(=O)O)C(=O)O)cc1
T/C (dose: 0.5 mg/kg/injection, schedule: Q01DX010 (sc), vehicle: sodium bicarbonate): 78 % of control and 107 % of control | T/C (dose: 2.0 mg/kg/injection, schedule: Q01DX010 (sc), vehicle: sodium bicarbonate): 38 % of control and 94 % of control

N[C@H](C(=O)O)[C@@H]1CC(Cl)=NO1
T/C (dose: 4.0 mg/kg/injection, schedule: Q01DX010 (sc), vehicle: saline): 49 % of control and 171 % of control

CCOC(=O)N(C)N=NC
T/C (dose: 30.0 mg/kg/injection, schedule: Q04DX003 (ip), vehicle: saline): 23 % of control and 60 % of control

CC1CN1C(=O)NCCCCCCNC(=O)N1CC1C (configuration not stated)
T/C (dose: 40.0 mg/kg/injection, schedule: Q04DX003 (sc), vehicle: Klucel (hydroxypropylcellulose) (HPC)): 17 % of control and 47 % of control

C[n+]1c(-c2cccc3ccccc23)c2cc(N)ccc2c2ccccc21
T/C (dose: 12.0 mg/kg/injection, schedule: Q04DX003 (sc), vehicle: saline): 101 % of control and 187 % of control

O=NN(CCCl)C(=O)NCCCl
T/C (dose: 8.0 mg/kg/injection, schedule: Q01DX010 (ip), vehicle: saline): -38 % of control and 1 % of control | T/C (dose: 53.33 mg/kg/injection, schedule: Q04DX003 (ip), vehicle: saline): -77 % of control and -10 % of control

CN(C)N=Nc1cccc(C(N)=O)c1
T/C (dose: 50.0 mg/kg/injection, schedule: Q04DX003 (sc), vehicle: Klucel (hydroxypropylcellulose) (HPC)): -56 % of control and 6 % of control | T/C (dose: 100.0 mg/kg/injection, schedule: Q04DX003 (sc), vehicle: Klucel (hydroxypropylcellulose) (HPC)): -72 % of control and 2 % of control

Cc1c(-c2ccc(-c3ccccc3F)cc2)nc2ccc(F)cc2c1C(=O)O
T/C (dose: 11.5 mg/kg/injection, schedule: Q01DX009 (ip), vehicle: water): -70 % of control, 17 % of control, 24 % of control

CN=NN(C)C(=O)NC
T/C [1]: -55 % of control and 1 % of control

CN(C)N=Nc1ccc(S(N)(=O)=O)cc1
T/C (dose: 400.0 mg/kg/injection, schedule: Q04DX003 (sc), vehicle: Klucel (hydroxypropylcellulose) (HPC)): -48 % of control and 6 % of control | T/C (dose: 800.0 mg/kg/injection, schedule: Q04DX003 (sc), vehicle: Klucel (hydroxypropylcellulose) (HPC)): -65 % of control and -37 % of control

CC[C@@]1(O)C(=O)OCc2c1cc1n(c2=O)Cc2cc3ccccc3nc2-1
T/C (dose: 40.0 mg/kg/injection, schedule: Q04DX003 (sc), vehicle: saline with Tween-80): -49 % of control and -12 % of control

COC1N(C2CC(O)C(CO)O2)C(=O)NC(=O)C1(F)Br (configuration not stated)
T/C (dose: 25.0 mg/kg/injection, schedule: Q01DX010 (sc), vehicle: saline): 38 % of control and 89 % of control

CN(C)N=Nc1ccc(C(=O)O)cc1
T/C [1]: -48 % of control and 1 % of control | T/C (dose: 200.0 mg/kg/injection, schedule: Q04DX003 (ip), vehicle: saline): -68 % of control and -26 % of control

CN(C)N=Nc1ccc(C(N)=O)cc1
T/C (dose: 50.0 mg/kg/injection, schedule: Q04DX003 (ip), vehicle: saline with Tween-80): 9 % of control and 49 % of control | T/C (dose: 100.0 mg/kg/injection, schedule: Q04DX003 (ip), vehicle: saline with Tween-80): 9 % of control and 40 % of control

Oc1c(Cl)cc(Cl)cc1C=NCCSc1ccc(Cl)cc1
T/C (dose: 300.0 mg/kg/injection, schedule: Q04DX003 (ip), vehicle: Klucel (hydroxypropylcellulose) (HPC)): 81 % of control and 110 % of control | T/C (dose: 600.0 mg/kg/injection, schedule: Q04DX003 (ip), vehicle: Klucel (hydroxypropylcellulose) (HPC)): 64 % of control and 99 % of control
